Hit rate of the full screen: of about 45,000 compounds, about 65 (0.1%) were called active. Calls come from the whole dose curve; as a rule, active = well fitted activation curve with a large enough effect; inconclusive = small, poorly fitted or top-dose-only effect; inactive = no such curve, though single readings can be large or run the other way. This is one part of the list.
molecular target: Galactocerebrosidase (Homo sapiens) (UniProt P54803); experiment: A Novel Cell-Based Assay to Identify Small Molecules for B -Galactocerebrosidase; details: 145M-Twi-hGALC-G270D cells (Twitcher mouse brain line with human GALC G270D), HMU-beta-Gal fluorescence, 48 h; series mostly up to 57.5 µM; activation: at the top concentration; note: 0% is about no effect; nearly all actives have a fitted effect of over 65% in size
Procedure, shortened: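 Mutant human GALC (G270D), stably expressed in a Twitcher mouse brain cell line lacking endogenous GALC, is measured in live-treated cells via 6-hexadecanoylamino-4-methylumbelliferyl-β-galactoside hydrolysis (0.1 mM final, pH 5.2) with fluorescent detection.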

UniProt P54803, sequence (P54803 whole entry, looked up): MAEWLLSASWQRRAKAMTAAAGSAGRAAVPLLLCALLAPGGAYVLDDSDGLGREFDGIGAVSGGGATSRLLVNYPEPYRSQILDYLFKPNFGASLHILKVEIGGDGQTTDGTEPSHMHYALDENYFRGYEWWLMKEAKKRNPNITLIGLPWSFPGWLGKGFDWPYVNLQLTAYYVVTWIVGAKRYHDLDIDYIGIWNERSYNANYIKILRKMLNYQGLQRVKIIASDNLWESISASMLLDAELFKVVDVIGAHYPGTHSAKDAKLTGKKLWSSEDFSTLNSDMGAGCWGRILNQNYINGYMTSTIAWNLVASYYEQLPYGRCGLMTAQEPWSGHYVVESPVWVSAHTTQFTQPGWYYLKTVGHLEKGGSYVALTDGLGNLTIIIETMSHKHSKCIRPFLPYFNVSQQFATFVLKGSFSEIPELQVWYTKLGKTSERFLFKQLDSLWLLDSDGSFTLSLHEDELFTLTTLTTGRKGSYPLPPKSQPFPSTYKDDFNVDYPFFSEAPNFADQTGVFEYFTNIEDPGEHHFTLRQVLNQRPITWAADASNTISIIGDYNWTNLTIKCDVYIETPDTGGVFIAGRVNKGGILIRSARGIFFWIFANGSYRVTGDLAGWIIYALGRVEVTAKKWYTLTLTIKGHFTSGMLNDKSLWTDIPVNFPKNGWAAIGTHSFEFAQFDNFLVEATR

activation, inactive:
CCS(=O)(=O)N1CCc2cc(C(=O)Nc3cc(OC)c(Cl)cc3OC)ccc21 -2.21%, CCOc1ccc(C(=O)Nc2ccc3oc(-c4ccncc4)nc3c2)cc1 -17.8%, Cc1ccc(Nc2nc(C)c(NC(=O)c3ccc(C)cc3)c(Nc3ccc(C)cc3)n2)cc1 -16.3%, CCC(=O)Nc1cc(-c2nc3ccccc3s2)c(Cl)cc1Cl -1.75%, CCc1cccc(C)c1NC(=O)C(CC)Sc1nncn2c1cc1occc12 (centres undefined) -7.09%, O=C(Cn1ccc2cc(S(=O)(=O)N3CCCC3)ccc21)NCc1ccccc1Cl -4.44%, CCN1c2ccccc2-c2nc(SCC(=O)Nc3cc(F)ccc3F)ncc2S1(=O)=O -14.6%, CCC(C(=O)Nc1cccc(C#N)c1)n1nc(-c2ccccc2)ccc1=O (centres undefined) 2.82%, Cc1ccc(NC(=O)CCCn2nc(C)c3sc4ccccc4c3c2=O)c(Cl)c1 5.18%, COC(=O)c1ccccc1NC(=O)CSc1nnc2cc(C)c3cc(C)cc(C)c3n12 -10.2%, O=C(c1ccc2c(c1)N(Cc1ccc(Cl)cc1)C(=O)c1ccccc1S2(=O)=O)N1CCc2ccccc21 11%, Cc1ccc(-c2nnc(Nc3cccc(Br)c3)c3ccccc23)cc1S(=O)(=O)NCC1CCCO1 (centres undefined) -7.83%, O=C(NCc1ccc(F)cc1)C(=O)NCC(c1ccco1)S(=O)(=O)c1cccs1 (centres undefined) -26.8%, COc1ccccc1N1CCN(S(=O)(=O)c2c(C)sc3ncn(CC(=O)NCCN(C)C)c(=O)c23)CC1 -22.8%, O=C(NCCC1=CCCCC1)c1ccc2c(c1)N(Cc1ccc(Cl)cc1)C(=O)c1ccccc1S2(=O)=O -0.957%, CCc1ccc(N2C(=O)N(CC(=O)C(C)(C)C)c3ccccc3S2(=O)=O)cc1 -3.05%, COc1ccc(OC)c(NC(=O)CSC2=Nc3ccccc3C3=NC(CCC(=O)NCCc4ccccc4)C(=O)N23)c1 (centres undefined) -4.76%, CCOc1ccc(NC(=O)CCn2nc(C)c(S(=O)(=O)N3CCCCC3)c2C)cc1 -2.25%, Cc1nnc(NCc2ccc(F)cc2)c2c1nnn2Cc1ccccc1Cl -21.2%, Cc1c(Cl)cccc1NC(=O)Cn1cnc(S(=O)(=O)N2CCCC2)c1 -7.12%, COc1ccc(CCNC(=O)Cn2nc(C)c3c(C)n(-c4ccc(C)cc4)nc3c2=O)c(OC)c1 -30.1%, COc1ccc(NC(=O)CC2C(=O)N(c3ccc(C)cc3)C(=O)N2Cc2ccc(C)cc2)cc1 (centres undefined) -16.6%, CCC(C(=O)N1CCN(c2ccc(OC)cc2)CC1)n1nc(C)n2c(cc3occc32)c1=O (centres undefined) -16.6%, Nc1ccc(S(=O)(=O)NC2(C(F)(F)F)NC(=O)N(c3cccc(Cl)c3)C2=O)cc1 (centres undefined) -22.3%, CCN(CC)CCCNC(=O)c1nn(-c2ccc(OC)cc2)c(=O)c2c1c1ccccc1n2C 4.14%, O=c1c2ccccc2nc(N2CCN(c3cccc(Cl)c3)CC2)n1-c1ccccc1 -2.89%, O=C(Nc1ccccc1C(F)(F)F)N1CCC2(CC1)Oc1ccccc1C(=O)N2Cc1ccccc1F -13.8%, CCOC(=O)c1c(C)oc2nc(C)nc(NCc3ccc(OC)cc3)c12 -4.11%, COCCNC(=O)c1ccc2c(c1)N(Cc1c(F)cccc1Cl)C(=O)c1ccccc1S2 -8.07%, CC(=O)Nc1ccc(NC(=O)CCc2c(C)nc3c(c(C)nn3-c3ccccc3)c2C)cc1 -15.6%, CCCCOc1ccc(C(=O)Nc2nc3c(s2)CC(C)CC3)cc1 (centres undefined) -8.35%, COC(=O)c1cccc(CN2C(=O)SC(Nc3ccc(Cl)cc3)C2=O)c1 (centres undefined) -5.65%, CCOC(=O)c1noc2ncnc(Nc3cccc(C(F)(F)F)c3)c12 -16%, COc1ccc(Nc2c3c(nc4nncn24)CCC3)cc1Cl -40.9%, Cc1ccc(NC(=O)COCc2cc(-c3cccs3)on2)cc1Cl -30.1%, CCCCNS(=O)(=O)c1ccc2nc(-c3cccnc3)cc(C(=O)NCCCOCC)c2c1 -5.16%, C[C@H]1c2cccc(O)c2C(O)=C2C(=O)[C@]3(O)C(O)=C(C(N)=O)C(=O)[C@@H](N(C)C)[C@@H]3[C@@H](O)[C@@H]21 -14.5%, CCCCOC(=O)c1ccc(NC(=O)/C(C#N)=C/c2ccc(C)o2)cc1 -9.87%, Cc1cccc(-n2c(SCC(=O)Nc3ccccc3C)nc3c(oc4ccccc43)c2=O)c1 -6.46%, COC(=O)c1ccc(NC(=O)CN(c2cccc(C(F)(F)F)c2)S(C)(=O)=O)cc1 -15.9%, CCc1ccccc1N1C(=O)N(C)c2ccccc2S1(=O)=O 1.23%, Cc1[nH]c2ccccc2c1C(=O)C(=O)NC1CC(=O)N(c2ccccc2)C1 (centres undefined) -8.12%, CCOc1ccccc1CNC(=O)CCn1cccn1 -6.17%, CSc1nn(Cc2ccc(F)cc2)c(N)c1S(=O)(=O)c1ccc(Cl)cc1 -8.73%, COc1cccc(CSc2nc(-c3ccccc3OC)nc3c2Cc2c(CO)cnc(C)c2O3)c1 -5.28%, CCOc1ccc(S(=O)(=O)N2CCN(c3ccc(C)cc3C)CC2)c2ccccc12 -10.8%, CCCN(CCC)CCCNC(=O)C1CCN(S(=O)(=O)c2cccc3nsnc23)CC1 -13.5%, Cc1ccc(C(=O)CC2(O)C(=O)N(Cc3ccccc3)c3ccc(Br)cc32)cc1 (centres undefined) -21.5%, CCN(C(=O)c1ccc2c(=O)n3c(nc2c1)CCCCC3)c1cc(C)ccc1C -9.17%, O=C1COc2ccc(-c3cc(-c4ccc(F)cc4)c4c(n3)-c3ccccc3OC4)cc2N1 -6.03%, CCCCCCCCCCCCCCCCO -13.2%, COCc1cc(C)n(CC(=O)Nc2cccc(C(C)=O)c2)c(=O)c1C#N -18.2%, Cc1ccc(-c2n[nH]c3c2C(c2cccs2)N(c2ccc(Cl)cc2)C3=O)cc1 (centres undefined) -13.3%, Cc1ccc(C)c(C(=O)CSc2nc3cc(C(=O)NC4CCCC4)ccc3c(=O)n2CC2CCCO2)c1 (centres undefined) -13.7%, CCOc1ccccc1C(=O)N1CCCCC1CCN1CCOCC1 (centres undefined) -11.3%, Cc1ccc(-c2nc3cc(NC(=O)c4cc(Br)ccc4Cl)ccc3o2)cc1 -7.98%, CSc1cccc(NC(=O)CN(C)S(=O)(=O)c2ccc3c(c2)CCCN3C(C)=O)c1 -7.02%, CCCOc1cccc(C2c3c(oc4cc(C)c(C)cc4c3=O)C(=O)N2CCCN2CCOCC2)c1 (centres undefined) -8.74%, CCC(=O)N1CCc2cc(S(=O)(=O)NC(C(=O)NCCc3ccc(C)cc3)C(C)C)ccc21 (centres undefined) 2.17%, COc1ccc(N2CCN(Cc3nc(-c4ccc(C)cc4)no3)CC2)cc1 -13.5%, CCOc1cc2[nH]c(=O)n(CCCCCC(=O)NC(C)CC)c(=O)c2cc1OCC (centres undefined) -10.5%, CC(C)c1nn2c(=O)cc(COC(=O)c3ccccc3Cl)nc2s1 -9.11%, CC(C)CCNC(=O)c1ccc2c(c1)N(C)C(=O)c1ccccc1S2 -1.2%, CC1CCN(S(=O)(=O)c2cn(CC(=O)Nc3ccc(F)cc3)c(=O)c3ccccc23)CC1 -5.07%, CO[C@@H]1[C@@H](OC)[C@H](C)[C@@](O)(CC(=O)O)O[C@H]1[C@H](C)[C@H]1O[C@@]2(CC[C@@](C)([C@H]3CC[C@@](C)([C@@H]4O[C@@H]([C@H]5O[C@](C)(O)[C@H](C)C[C@@H]5C)C[C@@H]4OC4C[C@H](OC)[C@@H](OC)[C@H](C)O4)O3)O2)C[C@H](O)[C@H]1C (some centres undefined) -4.66%, COc1ccc(-c2csc(-c3c(N)c(C(=O)c4ccccc4)n4ccccc34)n2)cc1 -22.1%, O=C(NCc1ccccc1Cl)C1CCN(c2ncnc3c2nc2n3CCCCC2)CC1 -0.25%, Cc1nnc(NC(=O)CSCc2cc(=O)c3ccc(C)c(C)c3[nH]2)s1 -29.9%, Cc1cc(C)n2c(Nc3cccc(C(F)(F)F)c3)c(-c3ccsc3)nc2n1 -14.3%, O=C(O)CCn1ccc2cc(S(=O)(=O)N3CCCCC3)ccc21 -2.06%, COc1ccc(Cl)cc1NC(=O)CCCS(=O)(=O)c1nc(-c2ccc(OC)c(OC)c2)cc(C(F)(F)F)n1 -28.1%, CCC(Cc1ccccc1)NC(=O)Cn1ncc2c3ccccc3n(Cc3ccc(F)cc3)c2c1=O (centres undefined) -11.8%, CCn1cc2nc(SCc3cccc(F)c3)n(CCc3ccccc3)c(=O)c2n1 -27.4%, Cc1cc(C)cc(-n2ccnc2SCC(=O)Nc2ccc(C)c(Cl)c2)c1 -21.4%, O=C(CN1CCN(c2ccc(Cl)cc2)CC1)Nc1ccc(F)c(F)c1 -25.1%, O=C(Cn1nnnc1-c1ccccc1F)Nc1ccc(F)c(F)c1 7.7%, CCC(=O)N1c2ccccc2CC1C(=O)NCCc1ccc(Cl)cc1 (centres undefined) -13.4%, COc1ccc(NC(=O)c2[nH]nc3c2CSc2ccccc2-3)c(OC)c1 -7.85%, CCOc1ccccc1NC(=O)c1nnn(CC(=O)Nc2ccccc2CC)c1N -8.53%, Cc1ccc(-n2nc3c(N4CCC(C(=O)NCCC(C)C)CC4)nnc(C)c3c2C)cc1 1.72%, CC(C)c1ccc(S(=O)(=O)c2cnc(SCC(=O)Nc3ccc(F)cc3F)nc2N)cc1 -4.95%, Cc1ccc2oc(=O)c3cc(C(=O)Nc4cccc(C#N)c4)sc3c2c1 -15.7%, Fc1ccc(N2CCN(c3ncnc4c3nc3n4CCCC3)CC2)cc1 3.63%, CCOc1ccc(NC(=O)CS(=O)(=O)Cc2nc(-c3ccc(C)cc3)oc2C)cc1 -19.5%, COc1ccc(C2CC(=O)Oc3c2c(=O)n(C)c2ccccc32)c(OC)c1OC (centres undefined) -2.48%, O=C(COc1ccccc1)Nc1ccc2nc(SCC(=O)N3CCCC3)sc2c1 -4.05%, CCCCOc1ccc(CC(=O)NO)cc1 -23.3%, COc1ccc(OC)c2sc(N(CCCN(C)C)C(=O)c3ccco3)nc12 11.2%, CC(=O)OC(C)C[N+](C)(C)C (centres undefined) -37.1%, COc1ccc(C2c3c(oc4ccccc4c3=O)C(=O)N2c2nc(C)c(C)s2)cc1 (centres undefined) 2.36%, O=c1c2oc3ccccc3c2ncn1Cc1ccc(Br)cc1 2.68%, Oc1c(Cl)cc(Cl)cc1Sc1cc(Cl)cc(Cl)c1O -6.02%, CCOC(=O)c1ccc(NC(=O)c2ccc(-c3cccc(Cl)c3C)o2)cc1 -6.62%, CCOc1ccc(CCNC(=O)c2cc3c(-c4ccccc4F)nn(C)c3s2)cc1OCC -2.09%
